The full ranking holds about 110,000 compounds; the median of “z-score” is about -0.1, and the highest 2% start at about 2. Some of the results follow. Active and inactive are the calls of the source.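 The calls were made as follows: active = z-score in the third read window above 3 or below -3; inactive = the rest.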

This assay has as its target Metabotropic glutamate receptor 8 (Rattus norvegicus) (UniProt P70579). In words: mGluR8 Gi/Go-coupled signaling modulation – cell-based, rat, thallium flux, HTS, primary screen (AID 488969). Conditions: HEK293 rat mGluR8, GIRK (G protein-gated inwardly rectifying potassium channel) thallium flux, FluoZin2; at 10 µM; stronger effect = higher value; submaximal glutamate (EC20) added with thallium.
Chain of UniProt P70579 (P70579 whole entry, looked up): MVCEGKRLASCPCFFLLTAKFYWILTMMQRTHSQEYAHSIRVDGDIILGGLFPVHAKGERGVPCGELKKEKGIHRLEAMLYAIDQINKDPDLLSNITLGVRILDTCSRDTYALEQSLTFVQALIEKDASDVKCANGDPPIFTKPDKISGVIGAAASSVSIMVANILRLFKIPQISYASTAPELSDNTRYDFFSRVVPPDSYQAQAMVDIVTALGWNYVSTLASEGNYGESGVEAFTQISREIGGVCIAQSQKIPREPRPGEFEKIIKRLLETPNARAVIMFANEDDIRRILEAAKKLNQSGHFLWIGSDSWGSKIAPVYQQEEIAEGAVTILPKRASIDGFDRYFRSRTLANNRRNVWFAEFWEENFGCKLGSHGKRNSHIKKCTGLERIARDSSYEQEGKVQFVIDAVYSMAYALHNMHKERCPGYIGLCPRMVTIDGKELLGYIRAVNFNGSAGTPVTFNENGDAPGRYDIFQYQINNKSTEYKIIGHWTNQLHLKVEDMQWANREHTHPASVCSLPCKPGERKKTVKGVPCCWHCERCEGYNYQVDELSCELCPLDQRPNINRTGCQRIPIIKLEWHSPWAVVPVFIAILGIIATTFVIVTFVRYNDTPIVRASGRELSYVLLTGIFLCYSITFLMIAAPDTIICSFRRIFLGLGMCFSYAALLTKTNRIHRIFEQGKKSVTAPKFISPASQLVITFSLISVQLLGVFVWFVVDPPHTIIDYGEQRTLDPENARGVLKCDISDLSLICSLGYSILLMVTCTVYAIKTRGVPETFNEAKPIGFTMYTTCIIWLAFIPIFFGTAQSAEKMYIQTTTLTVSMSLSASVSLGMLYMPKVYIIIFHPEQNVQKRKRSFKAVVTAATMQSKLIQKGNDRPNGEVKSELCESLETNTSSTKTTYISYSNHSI
In the case of `CCN1C(=O)CC(N2CCC(Nc3ccc(F)cc3)CC2)C1=O` (stereo unspecified), the z-score came to 0.0123. The compound `CC(=O)N1CCN(c2ccc(NCc3ccc(F)cc3)cc2)CC1` gave a z-score of 0.0515.

Regarding `Cc1ccc(/C=C(\C#N)C(=O)Nc2c(C)cccc2C)s1`, the z-score is -0.0444.

Compound `CCCc1nnc(SCC(=O)Nc2ccc(OCC)cc2)n1N` showed a z-score of -0.0268. For `COc1ccc(/C=N/Nc2ncnc3sc(C)c(C)c23)cc1` the value was -0.275. `Cc1cc(C)n(-c2nncn2NC(=O)c2ccc(Cl)cc2O)n1` had a z-score of 2.24.

Take `O=C(c1cccs1)C1C(c2ccc(Br)cc2)NC(=S)NC1(O)C(F)(F)F` (stereo unspecified): the z-score is -0.3.

In the case of `CCOC(=O)N1CCC(NC(=O)c2ccc3nc(N4CCOCC4)sc3c2)CC1`, the z-score is -0.434. For `COC(=O)c1cccc(NC(=O)CSc2nnc(COc3ccccc3)n2C)c1`, the z-score is -0.736. In turn, `C=CCO/N=C(\C)c1c(O)c(C)c(-c2ccccc2)n(-c2ccccc2)c1=O` returned a z-score of -0.387. `CC1CC(C)CN(c2ncc3c(n2)CC(c2ccccc2Cl)CC3=O)C1` (stereo unspecified): the z-score is -0.181. Next, `CCC(C)c1ccc(NC(=S)NCc2cccs2)cc1` (stereo unspecified): 0.19; `COc1ccc(NC(=O)N(CCCN2CCOCC2)Cc2cccnc2)c(OC)c1`: -0.339. Regarding `N#Cc1c(NC(=O)c2ccncc2)sc2c1CCC2`, the z-score was -0.0185. Turning to `CC1CCC(NC(=O)Cn2cc3c(n2)CCCC3)CC1` (stereo unspecified), the z-score amounted to 2.79. For `CC(=O)Nc1ccc(NC(=O)C(C)Oc2ccccc2F)cc1` (stereo unspecified) the value was 0.226. The compound `CC1=CC(c2ccc(Cl)cc2)n2nc(N3C(=O)CCC3=O)nc2N1` (stereo unspecified) showed a z-score of -0.167. Regarding `O=C(Cn1cnc2c(oc3ccccc32)c1=O)NCc1ccco1`, the z-score is -0.11. In turn, `Cc1oc(-c2ccc(Cl)cc2)nc1CN1CCC(C(=O)NCc2ccco2)CC1` yielded a z-score of -0.785. As to `O=C(NC1CCCc2ccccc21)C1CCN(S(=O)(=O)c2cccc3nonc23)CC1` (stereo unspecified), the z-score turned out to be 0.643. The compound `COc1ccc(NC(=O)CC(c2ccc(F)cc2)c2ccc(OC)cc2)cc1` (stereo unspecified) displayed a z-score of -0.576. Compound `COC(=O)C1=C(N)Oc2cc(C)[nH]c(=O)c2C1c1cccnc1` (stereo unspecified) displayed a z-score of 0.324. For `O=[N+]([O-])c1cccc(/C([O-])=C(/C(=S)Nc2cccc3ccccc23)[n+]2ccccc2)c1`, the z-score was found to be 0.203. Next, `CCOC(=O)C1CCN(Cc2cn[nH]c2-c2ccccc2)CC1`: -0.303; `COc1ccccc1NC(=S)NNC(=O)c1c(Cl)c(C)nn1C`: -0.00139. Next, `CC1(C)Cc2c(C#N)c(SCC(=O)c3ccccc3)nc(N3CCOCC3)c2CS1`: 0.105. Next, `Cc1snc(S(=O)(=O)Cc2ccccc2Cl)c1C#N`: -0.159; `CN(C)CCN(C(=O)/C=C/c1cccs1)c1nc2c(F)cc(F)cc2s1`: -0.00668; `CCOc1ccc(NC(=O)CCNS(=O)(=O)c2ccc(Br)s2)cc1`: -0.0821. As for `CCS(=O)(=O)c1ccc(C(=O)Nc2ccccc2)c(Cl)c1Cl`, the z-score was -0.115. With `Cc1ccc2[nH]c(=O)c(CN(CC3CCCO3)S(=O)(=O)c3cccc4nsnc34)cc2c1` (stereo unspecified), the z-score came out at 0.8.

Consider `CCOc1cc(C=O)ccc1OCCSc1ccc(Cl)cc1`, for which the z-score was -0.108.

`O=C1CN(C(=O)c2cc(Br)c(Br)s2)c2ccccc2N1`: the z-score was -0.435. For `Cc1cc(N2CCN(c3ccccc3Cl)CC2)n2cc(-c3ccccc3)nc2n1`, the z-score was determined as 0.105. Turning to `COc1ccc(S(=O)(=O)n2oc(=O)cc2-c2ccccc2)cc1OC`, the z-score was -0.0891.

Regarding `Cc1cccc(C)c1NC(=O)Cn1nnc(-c2ccc(N3CCOCC3)cc2)n1`, the z-score was -0.234.

For `O=C(Cn1c(-c2cscn2)nc2ccccc21)Nc1ccc2ccccc2c1`, the z-score was -0.0133. Consider `CS(=O)(=O)NCCSCc1ccccc1`, for which the z-score was -0.226. In the case of `CCn1c(SCc2nc3ccccc3s2)nnc1-c1ccccc1`, the z-score was -0.212. `CCSc1nnc(NC(=O)C2CC=CCC2C(=O)O)s1` (stereo unspecified) displayed a z-score of 1.27. On to `CCCc1cc2c(cc1NC(=O)c1ccc(Br)cc1)OCO2`, for which the z-score is -0.081. The compound `COc1ccc(Cn2c(C3CC3)nc3ccc(NC(C)=O)cc3c2=O)cc1` had a z-score of 0.228. As to `CCOc1nc2ccccc2nc1NS(=O)(=O)c1ccccc1`, the z-score is -0.249. In turn, `N#Cc1c(NC(=S)NC(=O)c2ccccc2)sc2c1CCCC2` displayed a z-score of 0.0146. For `CC(=O)c1c(C)n(CCO)c2ccc(O)cc12` the value was 0.363; for `O=C1CC(C(=O)Nc2ccc(F)c(Cl)c2)N=C(N2CCCCC2)N1` (stereo unspecified), 0.0616; for `CCOc1cc(CNc2ccc(N(C)C)cc2)cc(Br)c1OCC(=O)NC(C)(C)C`, 0.193. Regarding `O=C(COc1cc(=O)n2c(n1)SCCC2)c1ccccc1`, the z-score is -0.121. As to `CCCS(=O)(=O)N1CCC(C(=O)NC2CCCCC2C)CC1` (stereo unspecified), the z-score worked out at 0.109.

Compound `CCOC(=O)C1=NN(C(C)=O)C2(CC(=O)N(c3cccc(C)c3)C2=O)C1` (stereo unspecified) returned a z-score of -0.0266. Next, `Cc1cccc(NC(=O)COC(=O)c2ccc3c(=O)n4c(nc3c2)CCC4)c1`: 2.19; `CCOC(=O)c1ccc(NC(=O)C2CCN(C(=O)c3ccc(OC)c(OC)c3)CC2)cc1`: -0.279; `CC1Cc2ccccc2N1C(=O)c1cc2c(=O)n3ccccc3nc2n1C` (stereo unspecified): -0.425. With `COCCNC(=O)C1CC(c2ccccc2[N+](=O)[O-])=NO1` (stereo unspecified), the z-score is -0.144. Compound `Cc1ccc(OC(C)c2nnc(N)s2)cc1Cl` (stereo unspecified) showed a z-score of -0.0873. For the compound `Cc1cccc(N(CC(=O)N/N=C/c2cc([N+](=O)[O-])ccc2Cl)S(C)(=O)=O)c1C`, the z-score is -0.628.

On to `CCCOc1ccc(/C=C/C(=O)Nc2ccc([N+](=O)[O-])cc2C)cc1OC`, for which the z-score was -0.0468. For `O=C(Cc1sc(-c2ccccc2)nc1-c1ccccc1)Nc1ccccc1`, the z-score amounted to 0.412. In the case of `CC1=C/C(=C\c2ccc3c(c2)OCO3)C(=O)S1`, the z-score was 0.528.

Regarding `Cc1cccc(Nc2nc(-c3ccccc3)c(C(=O)Nc3cccnc3)s2)c1`, the z-score stood at 0.439. In the case of `S=C(Nc1ccccc1)N1CCn2cccc2C1c1cccnc1` (stereo unspecified), the z-score came to 0.474.

`COc1ccc(-n2nnnc2-c2cccnc2)cc1` displayed a z-score of -0.216.

For the compound `C=CCn1c(SC)nnc1-c1cccc([N+](=O)[O-])c1`, the z-score was -0.263. Next, `CSc1nsc(/C=C/Nc2ccc(Cl)cc2)c1C#N`: 0.0184; `CCOC(=O)c1sc(NC(=O)CSc2n[nH]c(CC(C)C)n2)nc1C`: -0.302. Take `Cc1cccc(N2CCN(C(=O)Cn3cccc3)CC2)c1C`: the z-score was -0.104. In turn, `Cc1ccc(N2C(=O)C3C4C=CC(CNC(=S)Nc5ccc(Cl)cc5)(O4)C3C2=O)cc1` (stereo unspecified) had a z-score of -0.00399. Take `O=C(c1ccc(Br)o1)N1CCN(c2ncccn2)CC1`: the z-score is -0.2. For `CC(=O)N1CCN(c2ccc(Oc3ncnc4sccc34)cc2)CC1` the value was 0.263.

In the case of `COC(=O)c1ccccc1NC(=O)c1nc2nc(C)cc(C)n2n1`, the z-score is 0.69. In turn, `CCNc1c([N+](=O)[O-])ncn1C` had a z-score of -0.216. `CN1CCC2(CC1)N=C(c1ccc(F)cc1)C(=S)N2C(=O)c1ccccc1` had a z-score of -0.317.

Compound `COc1cccc(NC(=O)COC(=O)c2c3c(nc4ccccc24)CCC(C)C3)c1` (stereo unspecified) had a z-score of -0.604. Next, `O=C(Nc1nc(-c2cc(Cl)sc2Cl)cs1)c1ccccc1`: -0.751; `COc1ccc(NC(=O)c2cn(CCC#N)nc2-c2cccs2)cc1`: -0.0605; `Cc1nnc(NC(=O)CSc2nccn2C)s1`: -0.0451.

Regarding `CCC1(C)Cc2c(sc3nc(SC)n(Cc4ccccc4)c(=O)c23)CO1` (stereo unspecified), the z-score was -0.216.

As to `C=CCN1C(=O)C2(NNc3ccccc3O2)c2ccccc21` (stereo unspecified), the z-score was -1. Compound `CCOc1cc(C(N)=O)cc(Br)c1OCC` came in with a z-score of 0.226. Next, `O=c1c(O)c(-c2cccs2)oc2ccc(Cl)cc12`: active: 14.1; `C=CCn1c(SCC(=O)Nc2ccc(N(C)C)cc2)nnc1-c1cccc(C)c1`: -0.17.

Regarding `Cc1cc(C(=O)OC(C(=O)Nc2ccc(C)c(Cl)c2)c2ccccc2)c(C)o1` (stereo unspecified), the z-score was -0.415.

For `COc1ccc(-c2nc3c(n2O)CCC/C3=N\O)cc1`, the z-score amounted to 0.878.

For `O=C(NCc1ccccc1)C(c1ccc(F)cc1)N(Cc1ccco1)C(=O)c1ccccn1` (stereo unspecified), the z-score came out at 0.304. As for `CCCS(=O)(=O)Nc1c(OC)ccc2c1c(C(=O)OCC)c(C)n2C`, the z-score is -0.18. The compound `Cc1ccc(-c2nnc(SCC(=O)Nc3ccc(N4CCOCC4)cc3)o2)cc1` had a z-score of -0.301. For the compound `O=c1[nH]c2cc3c(cc2cc1CN(CCc1ccccc1)Cc1nnnn1C1CCCC1)OCCO3`, the z-score is -0.261. On to `O=C(Oc1ccc([N+](=O)[O-])cc1)c1cccnc1`, for which the z-score was -0.0965.

In turn, `CCCNC(=O)c1ccccc1NC(=O)COc1ccc(OC)cc1` gave a z-score of -0.246. Compound `Clc1ccc(-c2cnc3n2CCC3)cc1` came in with a z-score of 0.0115.

With `CCCN(C(=O)Cn1ncc2c(=O)oc3ccccc3c21)c1cccc(C)c1`, the z-score is -1.15.

With `COc1cc(C=O)ccc1OCCOCCOc1ccccc1Cl`, the z-score is -0.5. Next, `O=C(COc1ccc(Cl)cc1Cl)Nc1ccc(S(=O)(=O)NC2=NCCCCC2)cc1`: -0.171; `CCS(=O)(=O)Nc1ccc(-c2ccc(NS(=O)(=O)CC)c(OC)c2)cc1OC`: 0.129; `COc1ccccc1NC(=O)CSc1nnc(C2CCCCC2)o1`: 0.261.

With `COCCNC(=O)NC(=O)COC(=O)C12CC3CC(CC(NC(C)=O)(C3)C1)C2`, the z-score was determined as 0.0811. For `O=C1CC(SCc2nc3ccccc3[nH]2)C(=O)N1c1ccc(F)c(Cl)c1` (stereo unspecified) the value was -0.178; for `CC(C)CCNC(=O)C12CN(Cc3ccccc3)CC1C(c1ccc([N+](=O)[O-])cc1)=NO2` (stereo unspecified), -0.311; for `COC(=O)c1ccc(C(=O)OC)c(NC2=NS(=O)(=O)c3ccccc32)c1`, 1.

For `CC(=O)c1cc(NC(=O)c2ccccc2)c(=O)oc1/C=C/N(C)C`, the z-score was -0.179. For `CSc1ncc(Cl)c(C(=O)Nc2ccccc2Cl)n1` the value was -0.152; for `COc1ccc(CC(=O)Nc2ccc(/C(C)=N/NC(=O)c3cccc([N+](=O)[O-])c3)cc2)cc1`, 0.0561. `S=c1[nH]c2cc(Cl)ccc2s1`: the z-score is active: 14.9. Compound `CCCCC(=O)Nc1cccc(-c2nc3ncccc3o2)c1` gave a z-score of 0.393.

For the compound `Cc1nn(C)c(Oc2cccc(Cl)c2)c1C(=O)Nc1ccc(F)cc1F`, the z-score is -0.15.

On to `COC(=O)c1nn(-c2ccccc2)c(=O)cc1Oc1ccc(Cl)cc1`, for which the z-score is -0.311. As for `COc1ccc(OCc2nn3c(-c4ccccn4)nnc3s2)cc1`, the z-score is -0.417. `C=CCn1c(SCc2ccc(C#N)cc2)nnc1-c1ccccc1` had a z-score of 0.0791. On to `COc1ccc(C(NC(=O)c2ccco2)c2ccc(OC)c(OC)c2)cc1` (stereo unspecified), for which the z-score is -0.189.

In the case of `CCOC(=O)c1nnn(CC(=O)Nc2cccc(Cl)c2C)c1C(=O)OCC`, the z-score is 2.12. `CCOC(=O)c1ccc(NC(=O)CC2S/C(=N/N=C/c3c[nH]c4ccccc34)NC2=O)cc1` (stereo unspecified) registered a z-score of -0.326.

(Values after PubChem BioAssay AID488969 (Vanderbilt High Throughput Screening Facility, 2010).)
